# Experimental data: PubChem BioAssay (NCI)
#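 Following 48 hours of exposure in 96-well plates, responses at five concentrations were used to interpolate endpoints linearly. GI50 is the concentration that inhibits growth by half. TGI denotes the concentration required for complete inhibition of growth.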
# Test system: NCI-H322M lung
# Test: DTP human tumour cell line panel, 48 h
SMILES,GI50,TGI
CC/C(=C(/CC)c1ccc(OP(=O)([O-])[O-])cc1)c1ccc(OP(=O)([O-])[O-])cc1.N.N.N.N.[Pt+4].[Pt+4],12.5 µM,54.6 µM
C[CH2][Sn]([CH2]C)([O]C(=O)c1cc(OC)c(OC)c(OC)c1)[O][Sn]([CH2]C)([CH2]C)[O]C(=O)c1cc(OC)c(OC)c(OC)c1,> 100 µM,> 100 µM
C[C@H]1ON2CCC[C@@H]2[C@@H]1C(=O)N1C2CC3CCC2(CS1(=O)=O)C3(C)C (stereo not given in full),,> 100 µM
Cc1c(O)c(OC2OC(CO)C(O)C(O)C2O)cc2c1CC[C@@H]1C2(C)C(=O)C[C@]2(C)[C@@H]([C@@](C)(O)C(O)CCC(C)(C)O)[C@H](O)C[C@@]12C (stereo not given in full),,> 100 µM
CC(C)Cn1cnnc1NS(=O)(=O)c1cc(C(=O)NN)c(Cl)cc1S,,> 10 µM
COc1ccc(C=O)c(N(C)C(=O)C(C)(C)C)c1,,> 100 µM
O=Cc1cc(O)ccc1Br,,> 92.8 µM
COC(=O)C1(C)CCc2c(ccc3ccccc23)C1=O (stereo not given),,> 100 µM
CC(C)(C)OC(=O)N1CCC[C@H]1CSC[C@@H]1CCCN1C(=O)OC(C)(C)C,,> 100 µM
c1cc(-c2ccc(Oc3ccc(-c4ccncc4)cc3)cc2)ccn1,,> 100 µM
Nc1nc(Cl)cc(NCC2(CO)CC(O)C2)n1 (stereo not given),,> 100 µM
O=C(Nc1ccc(Cl)cc1)C(=O)C1=C(O)c2ccccc2OC1,,> 100 µM
COc1ccc(-n2c(-c3ccccc3)cc(-c3cccs3)c2-c2cccs2)cc1,,> 100 µM
Cc1ccc2c(c1)/C(=N\N=C/c1cn(C(C)C)c3ccccc13)C(=O)N2,4.82 µM,> 100 µM
CSC(=S)Nc1cc(C)ccn1,,> 100 µM
O=C1c2cccnc2-c2nc(-c3ccccc3)cc3c2c1nc1ccccc13,13.1 µM,26.6 µM
COc1ccc(/C=N/Nc2nc3ccccc3c(=O)n2-c2ccccc2)cc1,,> 100 µM
COc1cc2nc(-c3ccc(Cl)cc3)cc(OCCCN3CCC(O)CC3)c2cc1OC,3.22 µM,18.4 µM
O=C1/C(=C\c2ccccc2)CN(C(=O)c2ccccc2F)C/C1=C\c1ccccc1,11.9 µM,25.6 µM
COC(=O)C1(c2ccc(OC)cc2)NC(c2ccccc2)C2C(=O)N(c3ccc(OC)cc3)C(=O)C21 (stereo not given),,> 100 µM
N=C1SCCS1,,> 100 µM
Fc1cccc(C=NC23CC4CC(CC(C4)C2)C3)c1,,> 100 µM
CCN(CC)c1ccc(/C=C/C2=[N+](C)c3ccccc3C2(C)C)cc1,1.33 µM,16.5 µM
c1ccc2c(-c3ccnc(-c4c[nH]c5ccccc45)n3)c[nH]c2c1,,29.3 µM

SMILES,GI50,TGI
O=C1NCC2=C1CCC1c3ccccc3CCN21 (stereo not given),,> 100 µM
S=c1nc(/C=C/c2ccc(Cl)c(Cl)c2)[nH][nH]1,,> 100 µM
Nc1nccc(C#Cc2cncnc2Nc2ccc(OCc3cccc(F)c3)c(Cl)c2)n1,4.89 µM,9.72 µM
O=[N+]([O-])c1ccc(N=Nc2c(O)[nH]c3ccc(Br)cc23)c([N+](=O)[O-])c1,,32.4 µM
Cc1ccc(CCCC(=O)O)cc1C,,> 100 µM
COC1(CCO)CC=CCC1(CCO)OC (stereo not given),,> 100 µM
O=C1/C(=C/c2ccccc2Cl)COc2ccccc21,,40.1 µM
O=C(O)c1ccccc1/C=C1\Cc2ccc3c(c2C1=O)CCCC3,,> 100 µM
Cn1c(=O)c2c(nc3n2C(CCl)CO3)n(C)c1=O (stereo not given),,> 100 µM
COc1cc([C@@H]2c3cc4c(cc3[C@@H](N=Cc3ccc(C(=O)O[C@H]5C[C@H]6OC[C@@]6(OC(C)=O)[C@H]6[C@H](OC(=O)c7ccccc7)[C@]7(O)C[C@H](OC(=O)[C@H](OC(=O)c8ccc(C=N[C@@H]9c%10cc%11c(cc%10[C@@H](c%10cc(OC)c(O)c(OC)c%10)[C@H]%10C(=O)OC[C@@H]%109)OCO%11)cc8)[C@@H](NC(=O)c8ccccc8)c8ccccc8)C(C)=C([C@@H](OC(C)=O)C(=O)[C@]56C)C7(C)C)cc3)C3COC(=O)C32)OCO4)cc(C)c1O (stereo not given in full),,> 31.2 µM
CC1(C)OCC(C2OC(On3nnc4ccc(Cl)cc43)C3OC(C)(C)OC23)O1 (stereo not given),,> 100 µM
Nc1cc2c3c(cccc3c1)C(=O)N(CCN1CCN(CCN3C(=O)c4cccc5cc(N)cc(c45)C3=O)CC1)C2=O,,> 100 µM
C=CCSC1=N/C(=C\c2ccco2)C(=O)N1CC=C,,> 100 µM
CC1C2CC(CC2=O)C1(C)C (stereo not given),,> 100 µM
CC(=O)[CH-]C(=O)c1ccccc1.CC(=O)[CH-]C(=O)c1ccccc1.[O-]Cc1cccs1.[O-]Cc1cccs1.[Ti+4],59.5 µM,> 100 µM
C[N+](C)(C)C(Cc1c[nH]c(=S)[nH]1)C(=O)O (stereo not given),,> 100 µM
[N-]=[N+]=NC1=C(N=[N+]=[N-])c2cccc3cccc(c23)C1=O,,> 100 µM
Cn1cc(-c2nonc2-c2cn(C)c3ccc(Br)cc23)c2ccccc21,5.9 µM,> 100 µM
CC(C)=CCc1c(O)c(CC=C(C)C)c2oc3c(c(=O)c2c1O)C(C=C(C)C)Oc1cc(O)ccc1-3 (stereo not given),,25.7 µM
COC(=O)Oc1nn(C(=O)OC)c(=O)c2ccccc12 (tested in a mixture with another compound),,> 100 µM
C=C(CNCCc1ccc(O)cc1)[C@@H]1CC[C@]2(CO)CC[C@]3(C)[C@H](CC[C@@H]4[C@@]5(C)CCC(NCCO)C(C)(C)[C@@H]5CC[C@]43C)[C@@H]12 (stereo not given in full),2 µM,3.64 µM
CCOC(=O)c1cc(NC(=O)c2ccccc2)c(=O)n2c(cc3c(Cl)cccc32)c1O,,> 100 µM
O=C(/C=C/c1cccnc1)/C=C/c1cccnc1,5.58 µM,18.9 µM
NC(=S)NS(=O)(=O)c1ccc(F)cc1,,> 100 µM
